The values below come from the supplement of paper PMC10670038.

Structures can show the parent of a compound that is named as a salt. ± gives the standard deviation of the averaged measurements. In all, about 2,000 compounds were measured (“relative cell viability vs DMSO, compound alone”: median about 1.1, lowest 2% from about 0.29 on). This is one part of the list.

The subject of the assay is TE10. Briefly: relative cell viability vs DMSO, compound alone (fraction); TE10 is an esophageal squamous carcinoma line; higher = less cytotoxic. As to conditions: 2 µM; 48 h. As for the experimental part: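 TE10 ESCC cells (1,000/well, 384-well plates) were treated with Selleck bioactive library compounds at 2 uM alone for 48 h. Viability was read by CellTiter-Glo and expressed relative to DMSO wells. Two technical replicates (A, B).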
Consider `CCN1C(=CC(C)=O)Sc2ccc(OC)cc21`, for which the relative cell viability came to 1.12 ± 0.015.
`O=C1[C@H](CC[C@H](O)c2ccc(F)cc2)[C@@H](c2ccc(O)cc2)N1c1ccc(F)cc1` [Ezetimibe] had a relative cell viability of 1.05 ± 0.0093.
The compound `Nc1ncnc2c1C(=O)N(c1ccc([C@H]3CC[C@H](CC(=O)O)CC3)cc1)CCO2` gave a relative cell viability of 1.14 ± 0.09.
Under `CCN(CC)CCOc1ccc(C(=C(Cl)c2ccccc2)c2ccccc2)cc1` [Clomifene citrate] stands 1.13 ± 0.051; under `COc1ccc2cc(-c3nc(-c4ccc([S+](C)[O-])cc4)[nH]c3-c3ccncc3)ccc2c1` (configuration not stated) [Tie2 kinase inhibitor], 1.07 ± 0.013; under `CCCCCOC(=O)Nc1nc(=O)n([C@@H]2O[C@H](C)[C@@H](O)[C@H]2O)cc1F` [Capecitabine], 1.13 ± 0.014.
The result for `CCCCC(=O)N(Cc1ccc(-c2ccccc2-c2nn[nH]n2)cc1)C(C(=O)O)C(C)C.CCOC(=O)C(C)CC(Cc1ccc(-c2ccccc2)cc1)NC(=O)CCC(=O)O` (configuration not stated) reads 1.05 ± 0.051.
For the compound `CCCCNc1ccc(C(=O)OCCN(C)C)cc1` [Tetracaine HCl], the relative cell viability came to 1.14 ± 0.024.
Under `COc1ncc(-c2ccc3nccc(-c4ccnnc4)c3c2)cc1NS(=O)(=O)c1ccc(F)cc1F` stands 0.514 ± 0.019.
`COc1cc2ncnc(Oc3ccc(CC(=O)Nc4cnn(C(C)C)c4)cc3)c2cc1OC` registered a relative cell viability of 1.11 ± 0.017.
Under `CN1CCC(=C2c3ccccc3CCc3sccc32)CC1` [Pizotifen Malate] stands 1.05 ± 0.028; under `CNCc1cc(-c2ccccc2F)n(S(=O)(=O)c2cccnc2)c1`, 1.15 ± 0.06.
As for `Cc1ccccc1C(OCCN(C)C)c1ccccc1` (configuration not stated) [Orphenadrine Citrate], the relative cell viability is 1.051 ± 0.006.
The result for `Cc1nn(C)c2c1C(c1ccc(C(F)(F)F)cc1)C(C#N)=C(N)O2` (configuration not stated) reads 0.91196 ± 0.00056.
In the case of `O=C1CCc2ccc(OCCCCN3CCN(c4cccc(Cl)c4Cl)CC3)cc2N1` [Aripiprazole], the relative cell viability came to 1.07 ± 0.035.
In the case of `COc1c2ccoc2cc2oc(=O)ccc12` [Bergapten], the relative cell viability was 1.0751 ± 0.00059.
The result for `CCCCCCCCCCCC1=C(O)C(=O)C=C(O)C1=O` [Embelin] reads 0.947 ± 0.17; that for `Oc1cc(O)c(Cl)cn1` [Gimeracil], 0.991 ± 0.088; that for `O=C1Cc2c([nH]c3ccc(Br)cc23)-c2ncccc2N1` [1-Azakenpaullone], 1.27 ± 0.018.
`COC(=O)C1=C(C)NC(C)=C(C(=O)OCC(C)C)C1c1ccccc1[N+](=O)[O-]` (configuration not stated) [Nisoldipine] showed a relative cell viability of 0.99 ± 0.056.
`CC1(C)CNc2cc(NC(=O)c3cccnc3NCc3ccncc3)ccc21` [Motesanib Diphosphate (AMG-706)] registered a relative cell viability of 1.2 ± 0.025.
The result for `Cn1cc(-c2[nH]c3cc(NC(=O)[C@H](N)C4CCCCC4)cc4c3c2C=NNC4=O)cn1` reads 1.05 ± 0.075; that for `CC[C@@H]1/C=C(\C)C[C@H](C)C[C@H](OC)[C@H]2O[C@@](O)(C(=O)C(=O)N3CCCC[C@H]3C(=O)O[C@H](/C(C)=C/[C@@H]3CC[C@@H](O)[C@H](OC)C3)[C@H](C)[C@@H](O)CC1=O)[C@H](C)C[C@@H]2OC` [Ascomycin (FK520)], 1.15 ± 0.13.
The result for `OC[C@H]1O[C@@H](c2ccc(Cl)c(Cc3ccc(O[C@H]4CCOC4)cc3)c2)[C@H](O)[C@@H](O)[C@@H]1O` reads 1.12 ± 0.012.
On to `Cc1nc(C#Cc2ccnc(Cl)c2)c(C)n1-c1ccc(OC(F)(F)F)cc1`, for which the relative cell viability is 1.2 ± 0.07.
Consider `CN(C)c1cccc(-c2c3c(=O)n(-c4ccccc4Cl)[nH]c3cc(=O)n2C)c1`, for which the relative cell viability amounted to 0.959 ± 0.036.
Compound `COC(=O)C1=C(C)NC(C)=C(C(=O)OCCN(C)Cc2ccccc2)C1c1cccc([N+](=O)[O-])c1` (configuration not stated) [Nicardipine HCl] registered a relative cell viability of 1.05 ± 0.056.
Under `COCCOc1ccc2c(c1)ncn2-c1ccc2cccc(N3CCC(N)CC3)c2n1` stands 0.876 ± 0.012; under `Cc1cc(Nc2cc(N3CCN(C)CC3)nc(/C=C/c3ccccc3)n2)n[nH]1`, 0.856 ± 0.03.
In turn, `Cc1cc(Nc2cc(N3CCN(C)CC3)nc(/C=C/c3ccccc3)n2)n[nH]1` [ENMD-2076 L-(+)-Tartaric acid] gave a relative cell viability of 0.808 ± 0.069.
Under `Cc1cc(-c2ccc(CC(=O)Nc3ccc(-c4cccnc4)cc3)cc2)ccn1` stands 1.083 ± 0.0063; under `COc1ccc(C2CC(c3ccccc3)=NN2c2ccc(S(N)(=O)=O)cc2)cc1` (configuration not stated), 1.09 ± 0.023.
Turning to `CCOc1cc(N)c(Cl)cc1C(=O)NCC1CN(Cc2ccc(F)cc2)CCO1` (configuration not stated) [Mosapride Citrate], the relative cell viability was determined as 1.01 ± 0.018.
Under `COC(=O)[C@H](CCSC)NC(=O)c1ccc(NC[C@@H](N)CS)cc1-c1ccccc1` stands 1.06 ± 0.041; under `Cc1cccc(Nc2ccccc2C(=O)O)c1C` [Mefenamic Acid], 1.139 ± 0.0043; under `CCC(C)n1ncn(-c2ccc(N3CCN(c4ccc(OCC5COC(Cn6cncn6)(c6ccc(Cl)cc6Cl)O5)cc4)CC3)cc2)c1=O` (configuration not stated) [Itraconazole], 1.077 ± 0.0012.
Regarding `C[C@H]1[C@H](OC(=O)CCC(=O)O)O[C@@H]2O[C@@]3(C)CC[C@H]4[C@H](C)CC[C@@H]1[C@@]24OO3` [Artesunate], the relative cell viability came to 0.964 ± 0.043.
Under `CC(NC(=O)Cc1cc(F)cc(F)c1)C(=O)NC1C(=O)N(C)c2ccccc2-c2ccccc21` (configuration not stated) stands 1.1 ± 0.025; under `Cc1ccc(-c2c(-c3nn(C)c4ncnc(N5CC[C@H](N6CCCCC6)C5)c34)cnn2C)cc1`, 0.979 ± 0.061.
`O=C1c2c(O)cc(O)cc2O[C@H](c2cc(O)c(O)c(O)c2)[C@H]1O` [Dihydromyricetin] came in with a relative cell viability of 0.741 ± 0.029.
Under `O=C1OC(CN2CCOCC2)CN1/N=C/c1ccc([N+](=O)[O-])o1` (configuration not stated) [Furaltadone HCl] stands 1.238 ± 0.0058; under `CC(C)(C(=O)NCC(F)(F)C(F)(F)F)C(=O)N[C@@H]1C(=O)Nc2ccccc2-c2ccccc21`, 0.867 ± 0.038; under `Cc1cc(C)c(CNC(=O)c2cc(-c3ccc(N4CCN(C)CC4)nc3)cc3c2c(C)cn3C(C)C)c(=O)[nH]1`, 1.09 ± 0.051.
Under `O=C1CCC(N2C(=O)c3ccccc3C2=O)C(=O)N1` (configuration not stated) [Thalidomide] stands 1.19 ± 0.018; under `c1cn2cc(-c3ccc4cn[nH]c4c3)nc(Nc3ccc(N4CCOCC4)cc3)c2n1`, 0.7107 ± 0.0043.
On to `C=CCn1c(=O)c2cnc(Nc3ccc(N4CCN(C)CC4)cc3)nc2n1-c1cccc(C(C)(C)O)n1`, for which the relative cell viability was 0.335 ± 0.015.
The result for `Clc1ccc(C(Cn2ccnc2)OCc2csc3c(Cl)cccc23)c(Cl)c1` (configuration not stated) [Sertaconazole nitrate] reads 1.05 ± 0.07; that for `CC1(C)S[C@@H]2[C@H](NC(=O)Cc3ccccc3)C(=O)N2[C@H]1C(=O)O` [Penicillin G Sodium], 1.134 ± 0.0036; that for `CCCCc1nc(Cl)c(CO)n1Cc1ccc(-c2ccccc2-c2nnn[nH]2)cc1` [Losartan Potassium (DuP 753)], 1.19 ± 0.015.
For `O=C(/C=C/C=C/c1ccc2c(c1)OCO2)N1CCCCC1` [Piperine], the relative cell viability amounted to 1.09 ± 0.04.
Compound `O=C(O)C(S)=Cc1c[nH]c2ccc(F)cc12` displayed a relative cell viability of 1.22 ± 0.024.
Consider `O=c1c2ccccc2nc2n1CCc1c-2[nH]c2ccccc12` [Rutaecarpine], for which the relative cell viability was 1.03 ± 0.095.
The result for `CCC(=O)OCC(=O)[C@@]1(OC(=O)CC)[C@@H](C)C[C@H]2[C@@H]3CCC4=CC(=O)C=C[C@]4(C)[C@@]3(Cl)[C@@H](O)C[C@@]21C` [Beclomethasone dipropionate] reads 0.879 ± 0.011.
Under `COc1ccccc1N1CCN(CCCNc2cc(=O)n(C)c(=O)n2C)CC1` [Urapidil HCl] stands 1.07 ± 0.017; under `O=C(Nc1cccc(Nc2ncc(Br)c(NCCc3cnc[nH]3)n2)c1)N1CCCC1`, 1.3 ± 0.1.
The compound `CN(C)CCCn1cc(C2=C(c3c[nH]c4ccccc34)C(=O)NC2=O)c2ccccc21` displayed a relative cell viability of 1.13 ± 0.069.
The result for `COc1nc(N)nc2c1ncn2[C@@H]1O[C@H](CO)[C@@H](O)[C@@H]1O` [Nelarabine] reads 1.11 ± 0.05; that for `O=C1NC(=O)[C@@H](c2cn3c4c(cccc24)CCC3)[C@@H]1c1c[nH]c2ccccc12` [Tivantinib (ARQ 197)], 0.8611 ± 0.0068.
`CCc1cnn2c(NCc3ccc[n+]([O-])c3)cc(N3CCCC[C@H]3CCO)nc12` yielded a relative cell viability of 0.5705 ± 0.0054.
Under `C[C@H]1Oc2cc(cnc2N)-c2c(nn(C)c2C#N)CN(C)C(=O)c2ccc(F)cc21` stands 0.94 ± 0.044; under `C[C@@]1(c2cc(-c3cncnc3)c(F)cc2F)CCSC(N)=N1`, 0.991 ± 0.023.
Under `CC(=O)SCC(Cc1ccccc1)C(=O)NCC(=O)OCc1ccccc1` (configuration not stated) [Racecadotril] stands 1.16 ± 0.13; under `C[C@H](CCC(=O)O)[C@H]1CC[C@H]2[C@@H]3CC[C@@H]4C[C@H](O)CC[C@]4(C)[C@H]3CC[C@]12C` [Lithocholic acid], 1.13 ± 0.015.
The compound `Cn1c(Nc2ccc(C(F)(F)F)cc2)nc2cc(Oc3ccnc(-c4ncc(C(F)(F)F)[nH]4)c3)ccc21` yielded a relative cell viability of 0.792 ± 0.036.
Consider `O=C(NO)c1ccc(CC(=O)N(CCO)c2ccccc2)cc1`, for which the relative cell viability was found to be 1.02 ± 0.028.
As to `COC(=O)C1=C(C)NC(C)=C(C(=O)OC(C)C)C1c1cccc2nonc12` (configuration not stated) [Isradipine], the relative cell viability was found to be 1.019 ± 0.003.
`CCOC(=O)Nc1ccc(NCc2ccc(F)cc2)nc1N` [Flupirtine maleate] yielded a relative cell viability of 1.22 ± 0.057.
The result for `O=C(O)CCCC[C@@H]1SC[C@@H]2NC(=O)N[C@@H]21` [Biotin (Vitamin B7)] reads 0.999 ± 0.036; that for `O=C(/C=C/N1C[C@H]2C[C@@H]1CN2c1ccccn1)c1ccccc1O`, 1.06 ± 0.02.
`CC(C)C(=O)Nc1ccc([N+](=O)[O-])c(C(F)(F)F)c1` [Flutamide] displayed a relative cell viability of 0.874 ± 0.037.
The result for `Cn1cnc([N+](=O)[O-])c1Sc1ncnc2[nH]cnc12` [Azathioprine] reads 1.01 ± 0.12; that for `CC(=O)Oc1cc2c(s1)CCN(C(C(=O)C1CC1)c1ccccc1F)C2` (configuration not stated) [Prasugrel], 1.139 ± 0.0097; that for `CN(C)[C@@H]1C(=O)C(C(N)=O)=C(O)[C@@]2(O)C(=O)C3=C(O)c4c(O)ccc(Cl)c4[C@@H](O)[C@H]3C[C@@H]12` [Demeclocycline HCl], 1.24 ± 0.11.
Under `CC1(C)CCC2=C(O1)c1ccccc1C(=O)C2=O` [Beta-Lapachone] stands 1.03 ± 0.022; under `CC(=O)OCC[N+](C)(C)C` [Acetylcholine Chloride], 1 ± 0.025.
Under `S=C(NCc1ccc2c(c1)OCO2)N1CCN(c2ncnc3c2oc2ccccc23)CC1` [Amuvatinib (MP-470)] stands 1.06 ± 0.18.
`CC(C)(O)C1CCC(C)(C2C(O)CC3(C)C4CC(OC5OC(CO)C(O)C(O)C5O)C5C(C)(C)C(OC6OCC(O)C(O)C6O)CCC56CC46CCC23C)O1` (configuration not stated) [Astragaloside A] showed a relative cell viability of 0.916 ± 0.18.
